In all, about 310,000 compounds went through this assay and about 2,200 (0.71%) showed an effect of 50% or more. Effects have a minus sign here. The list shows a part of the results.
target: human ether-à-go-go-related gene (hERG) potassium channel (human, UniProt Q12809); assay: primary screen, population patch clamp on CHO cells stably expressing hERG
Sequence (Q12809 whole entry, looked up): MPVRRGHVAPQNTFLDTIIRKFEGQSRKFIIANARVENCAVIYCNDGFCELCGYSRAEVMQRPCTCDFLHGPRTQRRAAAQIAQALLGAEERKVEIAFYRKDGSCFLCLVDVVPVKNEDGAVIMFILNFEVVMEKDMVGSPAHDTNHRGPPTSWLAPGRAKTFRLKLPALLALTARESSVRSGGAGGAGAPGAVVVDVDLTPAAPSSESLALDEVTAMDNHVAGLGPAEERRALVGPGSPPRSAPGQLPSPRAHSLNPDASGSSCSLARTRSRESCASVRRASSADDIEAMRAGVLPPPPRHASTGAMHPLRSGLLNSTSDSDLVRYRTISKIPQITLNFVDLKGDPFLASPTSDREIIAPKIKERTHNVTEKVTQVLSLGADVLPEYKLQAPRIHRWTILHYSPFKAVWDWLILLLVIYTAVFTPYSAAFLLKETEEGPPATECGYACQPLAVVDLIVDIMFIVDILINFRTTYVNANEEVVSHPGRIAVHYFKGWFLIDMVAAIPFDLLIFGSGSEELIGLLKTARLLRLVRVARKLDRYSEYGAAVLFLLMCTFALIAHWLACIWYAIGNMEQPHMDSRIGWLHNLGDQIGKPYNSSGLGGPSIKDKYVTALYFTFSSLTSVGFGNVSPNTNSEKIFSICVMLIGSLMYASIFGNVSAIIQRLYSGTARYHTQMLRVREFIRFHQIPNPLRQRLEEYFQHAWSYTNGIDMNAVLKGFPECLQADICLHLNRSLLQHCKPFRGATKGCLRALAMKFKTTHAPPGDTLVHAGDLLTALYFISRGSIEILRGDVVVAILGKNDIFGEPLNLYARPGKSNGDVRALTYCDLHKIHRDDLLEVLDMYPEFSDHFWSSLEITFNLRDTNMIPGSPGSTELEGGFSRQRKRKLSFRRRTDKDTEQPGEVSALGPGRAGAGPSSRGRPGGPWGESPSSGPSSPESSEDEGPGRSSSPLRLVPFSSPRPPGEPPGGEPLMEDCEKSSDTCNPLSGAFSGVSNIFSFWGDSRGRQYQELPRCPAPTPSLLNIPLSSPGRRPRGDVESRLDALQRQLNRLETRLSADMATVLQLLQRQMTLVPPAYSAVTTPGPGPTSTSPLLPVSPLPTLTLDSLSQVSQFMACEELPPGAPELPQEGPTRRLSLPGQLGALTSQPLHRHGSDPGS

Structure (SMILES)	hERG current change (%, negative = inhibition) at 1uM [%]
Cc1c(C)c2ccc(Oc3ccc([N+](=O)[O-])cc3C(F)(F)F)c(C)c2oc1=O	14.1
CCOc1cccc(OCCCCn2ccnc2)c1	-2.74
CC1(C(=O)NCc2cccnc2)CCC(=O)N1Cc1cccs1 (stereo not shown)	11.6
O=C(COc1ncnc2ccccc12)NCCCN1CCCC1=O	-3.47
CCN1CCN(CC(O)COC(c2ccccc2)c2ccccc2)CC1 (stereo not shown)	7.15
Cc1ccc(-c2nnc(-c3ccncc3)n2-c2ccc(C)cc2)cc1	4.94
CCc1c(C#N)c(SCCC(=O)Nc2cccc(OC)c2)nc2c1C(=O)CC(C)(C)C2	13
COc1ccc(Cc2ccc(OC)c(N)c2)cc1N	1.31
Cc1cccc(NC(=O)CSCC(=O)N(C)CCOc2ccc(Cl)cc2)c1	9.05
O=C(Nc1ccc2c(c1)OCO2)Nc1cnccn1	5.8
O=C(NC1CCCC1)C1CC(=O)N(CCc2ccccc2)C1 (stereo not shown)	14.5
CC(=O)N1CCc2cc(Br)cc(S(=O)(=O)N3CCC(C(=O)O)CC3)c21	9.67
COc1ccc(-c2nc(N)n(S(=O)(=O)c3ccc(C)cc3)n2)cc1	28.4
COC(=O)Cc1cc(=O)[nH]c(/N=C(\N)Nc2ccc(C)cc2C)n1	5.4
N#Cc1nc(-c2cccs2)oc1N1CCOCC1	7.52
Cc1cc(NC(=O)CSc2nc(CC(C)(C)C)nc3c2c(=O)n(C)c(=O)n3C)no1	10
COc1cc(OC)c(C(=O)NNC(=S)NC2CCCCC2)cc1OC	13
CCOC(=O)C1(CCCc2ccccc2)CCN(C(=O)Cc2nonc2C)CC1	-13
Cn1c(-c2ccccc2)cnc1SCC(=O)N1CCCCC1	4.87
COC(=O)c1c(CSc2ccc(C)c(C)c2)noc1C(=O)NCc1ccc(OC)cc1	-0.265
O=C(NCc1ccccc1F)C1CCCN(C(=O)Nc2ccc(F)cc2)C1 (stereo not shown)	9.36
CC(C)C(=O)Nc1ccc(C(=O)CN2C(=O)NC3(CCOc4ccccc43)C2=O)cc1 (stereo not shown)	7.29
CC(=O)c1ccc(S(=O)(=O)N2CCN(C(=O)CN3C(=O)NC4(CCCC4)C3=O)CC2)cc1	8.95

Structure (SMILES)	hERG current change (%, negative = inhibition) at 1uM [%]
CCN1C(=O)c2ccccc2S(=O)(=O)c2ccc(C(=O)NCCOC)cc21	12
O=C(CSc1nc2ccccc2s1)NC(=O)NCc1ccco1	10.4
O=C(Nc1ccc(F)c(F)c1)C1CCN(S(=O)(=O)c2cccc3nonc23)CC1	13.1
Cc1cccc(C)c1NC(=O)CN(C)S(=O)(=O)c1ccc(-c2ccc(=O)[nH]n2)s1	-21.1
CCCCOc1ccc(C(=O)NNC(=S)NC(=O)CC)cc1	13.1
COc1cccc(CCC(=O)N(C)C2CCCN(Cc3ccccc3F)C2)c1 (stereo not shown)	16.4
CN(NC(=O)c1ccccc1)C1=NS(=O)(=O)c2ccccc21	17.5
COc1ccc(-c2nnc3ccc(SCC(=O)N4CCOCC4)nn23)cc1	1.7
CC(C)(C)n1nnnc1C(c1cccc(C#N)c1)N1CCN2CCCC2C1 (stereo not shown)	6.11
COCC(=O)N/N=C\c1ccc(OC/C=C/c2ccccc2)c(OC)c1	2.14
O=C(CNC(=O)C1CCCCC1)Nc1ccccc1	19.9
Cc1ccc(N/C=C(\[N+](=O)[O-])S(=O)(=O)c2ccccc2)cc1	13.1
O=C(O)C1CC(=O)N(c2ccc(OCc3ccccc3)cc2)C1 (stereo not shown)	-0.19
COc1ccc(F)cc1S(=O)(=O)NCC1CCCO1 (stereo not shown)	11.9
COc1cccc(C(c2sc3nc(C)nn3c2O)N2CCN(C(=O)c3ccco3)CC2)c1 (stereo not shown)	4.28
O=S(=O)(Cc1ccc(Cl)cc1)c1ccccc1-c1nnc(-c2ccc(Cl)cc2)o1	5.26
C[N+]1(CC(=O)OC2CCCCCCCCCCC2)CCCC1.[I-]	0.705
CCC(C)(C)n1nnnc1C(c1ccncc1)N1CCN(c2cccc(OC)c2)CC1 (stereo not shown)	3.98
COc1ccc(NC(=O)CCN2CCN(c3ccccc3F)CC2)c(OC)c1	5.24
O=C(Cc1c(F)cccc1Cl)NC1=NCCS1	2.96
O=C(N/N=C/C1=C(N2CCOCC2)C(=C\c2ccccc2)/CC1)Nc1ccccc1	8.83
CS/C(=N\N(C)C(N)=O)c1ccccc1	5.01
COc1ccc(C(=O)C2CCCN(C(=O)CCc3ccccn3)C2)c(C)c1 (stereo not shown)	9.98

Reference: publication PMC4336329 (PLoS ONE, 2015)
